{"source": "the supplement of paper PMC4604168 (melanoma cell lines)", "note": "The list shows a part of the results. Single values are uncertain, as repeats are few or missing.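 Note: cell number obtained by counting DAPI-stained nuclei in high-throughput microscope images with image analysis software, screen run in 1,536-well plates.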"}
{"system": "A375", "assay": "cell count relative to DMSO control; melanoma cells; higher = more viable cells", "conditions": "library dose: low library concentration; 72 h", "units": {"cell count": "%"}}
{"smiles": "Cc1nc(Nc2ncc(C(=O)Nc3c(C)cccc3Cl)s2)cc(N2CCN(CCO)CC2)n1", "note": "[dasatanib] + C/C(O)=C(\\C#N)C(=O)Nc1cc(Br)ccc1Br [LFM-A13] (first compound 0.004 µM, partner dose 2 µM)", "cell count": 74.4}
{"smiles": "Cn1c(Nc2ccc(C(F)(F)F)cc2)nc2cc(Oc3ccnc(-c4ncc(C(F)(F)F)[nH]4)c3)ccc21", "note": "+ O=C(Oc1ccc([N+](=O)[O-])cc1)N1CCC(C(O)(c2ccc3c(c2)OCO3)c2ccc3c(c2)OCO3)CC1 [JZL184] (first compound 0.08 µM, partner dose 1 µM)", "cell count": 59.4}
{"smiles": "C#Cc1cccc(Nc2ncnc3cc(OCCOC)c(OCCOC)cc23)c1", "note": "[erlotinib] + C[As](C)SC[C@H](NC(=O)CC[C@H](N)C(=O)O)C(=O)NCC(=O)O [Darinaparsin] (first compound 0.8 µM, partner dose 0.4 µM)", "cell count": 93.2}
{"smiles": "Nc1ccn([C@@H]2O[C@H](CO)[C@@H](O)C2(F)F)c(=O)n1", "note": "[gemcitabine] + C[As](C)SC[C@H](NC(=O)CC[C@H](N)C(=O)O)C(=O)NCC(=O)O [Darinaparsin] (first compound 0.0004 µM, partner dose 0.4 µM)", "cell count": 80.3}
{"smiles": "COc1cc(N2CCC(N3CCN(C)CC3)CC2)ccc1Nc1ncc(Cl)c(Nc2ccccc2S(=O)(=O)C(C)C)n1", "note": "+ O=C(Oc1ccc([N+](=O)[O-])cc1)N1CCC(C(O)(c2ccc3c(c2)OCO3)c2ccc3c(c2)OCO3)CC1 [JZL184] (first compound 0.08 µM, partner dose 1 µM)", "cell count": 79.8}
{"smiles": "Cn1c(Nc2ccc(C(F)(F)F)cc2)nc2cc(Oc3ccnc(-c4ncc(C(F)(F)F)[nH]4)c3)ccc21", "note": "+ C/C(O)=C(\\C#N)C(=O)Nc1cc(Br)ccc1Br [LFM-A13] (first compound 0.08 µM, partner dose 2 µM)", "cell count": 44.9}
{"smiles": "CO[C@H]1C[C@@H]2CC[C@@H](C)[C@@](O)(O2)C(=O)C(=O)N2CCCC[C@H]2C(=O)O[C@H]([C@H](C)C[C@@H]2CC[C@@H](OCCO)[C@H](OC)C2)CC(=O)[C@H](C)/C=C(\\C)[C@@H](O)[C@@H](OC)C(=O)[C@H](C)C[C@H](C)/C=C/C=C/C=C/1C", "note": "[everolimus] + C[As](C)SC[C@H](NC(=O)CC[C@H](N)C(=O)O)C(=O)NCC(=O)O [Darinaparsin] (first compound 0.02 µM, partner dose 0.4 µM)", "cell count": 49.4}
{"smiles": "C=CCn1c(=O)c2cnc(Nc3ccc(N4CCN(C)CC4)cc3)nc2n1-c1cccc(C(C)(C)O)n1", "note": "+ O=C(Oc1ccc([N+](=O)[O-])cc1)N1CCC(C(O)(c2ccc3c(c2)OCO3)c2ccc3c(c2)OCO3)CC1 [JZL184] (first compound 0.02 µM, partner dose 1 µM)", "cell count": 50.4}
